This experiment has as its target Bovine Hsc70 (Stressgen) (bovine, UniProt P19120). As to the kind of experiment: cell-based or functional assay.
Sequence of UniProt P19120 (P19120 2-650 limits assumed): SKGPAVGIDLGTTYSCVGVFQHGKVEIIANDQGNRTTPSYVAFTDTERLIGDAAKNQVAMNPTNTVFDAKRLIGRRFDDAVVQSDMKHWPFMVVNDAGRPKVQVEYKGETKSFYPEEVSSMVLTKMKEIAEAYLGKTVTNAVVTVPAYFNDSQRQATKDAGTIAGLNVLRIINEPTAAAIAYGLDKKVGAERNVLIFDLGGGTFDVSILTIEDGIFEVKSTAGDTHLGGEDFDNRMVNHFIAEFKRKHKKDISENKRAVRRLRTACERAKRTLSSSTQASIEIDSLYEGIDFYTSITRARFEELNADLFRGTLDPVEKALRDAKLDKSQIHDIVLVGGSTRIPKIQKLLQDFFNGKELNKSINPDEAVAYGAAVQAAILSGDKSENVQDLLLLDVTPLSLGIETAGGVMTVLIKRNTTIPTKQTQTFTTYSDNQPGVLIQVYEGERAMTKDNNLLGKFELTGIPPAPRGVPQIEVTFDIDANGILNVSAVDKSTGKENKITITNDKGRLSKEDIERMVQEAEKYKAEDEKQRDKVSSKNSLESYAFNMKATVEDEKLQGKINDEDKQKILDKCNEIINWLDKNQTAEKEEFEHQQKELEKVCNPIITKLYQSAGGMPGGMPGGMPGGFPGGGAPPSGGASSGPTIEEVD

B1: Human Hsp40 (Stressgen) (other)
chain: MGKDYYQTLGLARGASDEEIKRAYRRQALRYHPDKNKEPGAEEKFKEIAEAYDVLSDPRKREIFDRYGEEGLKGSGPSGGSGGGANGTSFSYTFHGDPHAMFAEFFGGRNPFDTFFGQRNGEEGMDIDDPFSGFPMGMGGFTNVNFGRSRSAQEPARKKQ[in this place about 150 residues]PERIPQTSRTVLEQVLPI
On to B1, for which the “rate of ATPase activity of Hsc70” value amounted to 11 fold.

Values taken from patent US7094873 (University of Texas, dated 2006).
